Test results as given in ChEMBL document CHEMBL4888484, “Replenishing the malaria drug discovery pipeline: Screening and hit evaluation of the MMV Hit Generation Library 1 (HGL1) against asexual blood stage Plasmodium falciparum ,using a nano luciferase reporter read-out” (2022).
Among all 150,000 compounds or so, about 540 (0.36%) showed an effect of 50% or more. The list shows a part of the results.

system: Plasmodium falciparum; test: Primary screen in NF54 nanoGlo assay, in single point, at 2uM, 72h; a lower Z score goes with more inhibition; type: functional, Erythrocyte; settings: timepoint 72 hour

First: Cc1cc(NC(=O)NCCc2nnc(-c3ccco3)[nH]2)nn1C(C)C
Second: CCc1nnc(CNC(=O)C2(c3ccccc3C)CCCC2)o1
The “% Inhibition” value of the first is higher: 2% for the first, -11% for the second.

Compared with `Cc1cc(CNCCn2cccn2)no1`, `CCN(CC)C(=O)C[C@@H]1CCNC[C@@H]1Cc1cc(-c2ccccc2)on1` is higher in “% Inhibition” value: -4% for the first, 26% for the second.

`Cc1ccc(NC(=O)c2ccc3c(c2)S(=O)(=O)N=CN3CCc2ccccc2)cc1` and `C[C@H](NC(=O)c1nc(COc2ccc(CC(N)=O)cc2)no1)c1ccccc1` are the same in “% Inhibition” value: -6% for the first, -6% for the second.

Going from `CC[C@H](C)N(CCNC(=O)Cn1nc(-c2ccccc2)c2cc(Cl)ccc21)C1CCCCC1` to `CNC(=O)CN(C)C(=O)[C@@H]1CCCn2c(-c3ccccc3)cnc21`, the “% Inhibition” value rises from -7% to 9%.

Compared with `COc1cc(C)ccc1OCc1nc(C(=O)NC2Cc3ccccc3C2)co1`, `COc1cc(-c2cc(CN(C[C@H]3CCCO3)C(=O)Nc3ccccc3C)no2)cc(OC)c1OC` is higher in “% Inhibition” value: -10% for the first, -2% for the second.

Compared with `Cc1ccn2nc(C(=O)NCC[C@H]3CCCOC3)cc2c1`, `O=C(CCc1cccc(Cl)c1)N1CCCN([C@H]2CCOC2)CC1` is lower in “% Inhibition” value: -10% for the first, -14% for the second.

First: CC12CCC3C[C@@]1(C(=O)NCC(F)(F)F)OC[C@@]32C
Second: Cc1nc2ccc(NCC(=O)NCC(F)(F)F)nn2n1
The “% Inhibition” value of the first is higher: 3% for the first, 2% for the second.

Compared with `CC(C)n1cc(C2=CCCN(c3nc(C4CCCCC4)ns3)CC2)nn1`, `CC(C)[C@H](Oc1ccccc1C#N)C(=O)NCCC(=O)OC1CCCCC1` is lower in “% Inhibition” value: 33% for the first, -3% for the second.

Compared with `COCCN(CC(=O)N(Cc1ccco1)Cc1cccn1C)C(=O)c1cc(Cl)cc(Cl)c1`, `CCN(C(=O)Cc1ccon1)c1ccccc1S(=O)(=O)CC` is higher in “% Inhibition” value: -13% for the first, -2% for the second.

First: Cc1cccc(-c2noc([C@]3(C(C)C)CNC(=O)C3)n2)c1F
Second: CCc1nc2ccc(Cl)cn2c1C(=O)Nc1cccc2c1CNC2=O
The “% Inhibition” value of the first is lower: -11% for the first, -1% for the second.

Compared with `COc1ccc2oc(CN[C@@H](C)CN3CCOCC3)nc2c1`, `COc1ccc(S(=O)(=O)N2CCOCC2)cc1C(=O)Nc1ccc2c(c1)CCC2` is higher in “% Inhibition” value: -8% for the first, -7% for the second.

First: Nc1nc(CCC(=O)N[C@H]2CC(=O)N(CC3CCCCC3)C2)cs1
Second: CN(CC(=O)NC(=O)NC1CCCCC1)Cc1cccc(Cl)c1Cl
The “% Inhibition” value of the first is higher: 8% for the first, 6% for the second.

First: CN(C(=O)c1cccc(NC(=O)[C@H]2[C@@H]3C[C@@H]4[C@H]2C(=O)O[C@@H]4C3)c1)c1ccccc1Cl
Second: CC(=O)Nc1ccc(S(=O)(=O)N2CC[C@H]2c2ccc(Cl)cc2)cc1
The “% Inhibition” value of the first is lower: -20% for the first, -8% for the second.

Compared with `CCc1nn(-c2ccc(F)cc2)c(Oc2cccc(C)c2)c1CN(C[C@H]1CCCO1)C(=O)NC(C)(C)C`, `CN(C)CCCc1nc(C2CC2)nn1-c1ccc(C(F)(F)F)cc1` is lower in “% Inhibition” value: 1% for the first, -3% for the second.

Going from `CCN1C(=O)N[C@@H](Cc2cccc(Cl)c2)C1=O` to `Cc1cc(N2C(=O)C3CCC(c4ccccc4)CC3C2=O)cc(C)c1Br` (configuration not stated), the “% Inhibition” value rises from -19% to -2%.

Compared with `Cc1cc(-c2ccncc2)nn1CCNS(=O)(=O)CCC(F)(F)F`, `CC[C@@H](c1ccncc1)N(C)C(=O)c1cc2n(n1)CCCC2` is lower in “% Inhibition” value: 11% for the first, -6% for the second.

Going from `Nc1ccc(-c2nc3c(ccc4ccccc43)o2)cc1` to `CCc1nnc2c(S(=O)(=O)N(Cc3ccccc3F)c3cc(F)cc(F)c3)cccn12`, the “% Inhibition” value rises from -11% to -2%.

`CC(Cc1ccc2ccccc2c1)NC(=O)COCC1CCCNC1` (configuration not stated) and `O=C(c1ccccc1)N1CCC([C@H]2c3[nH]cnc3CCN2Cc2cccnc2)CC1` are the same in “% Inhibition” value: 0% for the first, 0% for the second.

Going from `COc1ccc2c(c1)CCc1c(C(=O)Nc3ccc4sc(NC(C)=O)nc4c3)n[nH]c1-2` to `COc1ccc(CCNC(=O)[C@H]2CCCN(S(=O)(=O)N3CCC(C)CC3)C2)cc1OC`, the “% Inhibition” value falls from 10% to -2%.

`CCN1CCCC[C@@H]1CNc1cc(C)cc(F)c1S(N)(=O)=O` and `c1ccc(N2CCC(n3cncn3)CC2)nc1` are the same in “% Inhibition” value: -12% for the first, -12% for the second.

In the case of `CC(C)CC(CC(C)C)NC(=O)CCn1cncn1`, the “% Inhibition” value is reported as 0%.

Compared with `Cc1cc(NC(=O)NCCc2nnc(-c3ccco3)[nH]2)nn1C(C)C`, `CCc1nnc(CNC(=O)C2(c3ccccc3C)CCCC2)o1` is higher in Z score: -0.31 for the first, 1.58 for the second.

Compared with `Cc1cc(CNCCn2cccn2)no1`, `CCN(CC)C(=O)C[C@@H]1CCNC[C@@H]1Cc1cc(-c2ccccc2)on1` is lower in Z score: 0.39 for the first, -2.98 for the second.

Compared with `Cc1ccc(NC(=O)c2ccc3c(c2)S(=O)(=O)N=CN3CCc2ccccc2)cc1`, `C[C@H](NC(=O)c1nc(COc2ccc(CC(N)=O)cc2)no1)c1ccccc1` is lower in Z score: 1.05 for the first, 0.74 for the second.

First: CC[C@H](C)N(CCNC(=O)Cn1nc(-c2ccccc2)c2cc(Cl)ccc21)C1CCCCC1
Second: CNC(=O)CN(C)C(=O)[C@@H]1CCCn2c(-c3ccccc3)cnc21
The Z score of the first is higher: 1.31 for the first, -1.13 for the second.

First: COc1cc(C)ccc1OCc1nc(C(=O)NC2Cc3ccccc3C2)co1
Second: COc1cc(-c2cc(CN(C[C@H]3CCCO3)C(=O)Nc3ccccc3C)no2)cc(OC)c1OC
The Z score of the first is higher: 1.91 for the first, 0.37 for the second.

Going from `Cc1ccn2nc(C(=O)NCC[C@H]3CCCOC3)cc2c1` to `O=C(CCc1cccc(Cl)c1)N1CCCN([C@H]2CCOC2)CC1`, the Z score rises from 1.4 to 2.38.

First: CC12CCC3C[C@@]1(C(=O)NCC(F)(F)F)OC[C@@]32C
Second: Cc1nc2ccc(NCC(=O)NCC(F)(F)F)nn2n1
The Z score of the first is higher: -0.33 for the first, -0.38 for the second.

Compared with `CC(C)n1cc(C2=CCCN(c3nc(C4CCCCC4)ns3)CC2)nn1`, `CC(C)[C@H](Oc1ccccc1C#N)C(=O)NCCC(=O)OC1CCCCC1` is higher in Z score: -3.71 for the first, 0.48 for the second.

Going from `COCCN(CC(=O)N(Cc1ccco1)Cc1cccn1C)C(=O)c1cc(Cl)cc(Cl)c1` to `CCN(C(=O)Cc1ccon1)c1ccccc1S(=O)(=O)CC`, the Z score falls from 2.29 to 0.36.

Compared with `Cc1cccc(-c2noc([C@]3(C(C)C)CNC(=O)C3)n2)c1F`, `CCc1nc2ccc(Cl)cn2c1C(=O)Nc1cccc2c1CNC2=O` is lower in Z score: 1.59 for the first, 0.19 for the second.

First: COc1ccc2oc(CN[C@@H](C)CN3CCOCC3)nc2c1
Second: COc1ccc(S(=O)(=O)N2CCOCC2)cc1C(=O)Nc1ccc2c(c1)CCC2
The Z score of the first is higher: 1.15 for the first, 0.99 for the second.

Compared with `Nc1nc(CCC(=O)N[C@H]2CC(=O)N(CC3CCCCC3)C2)cs1`, `CN(CC(=O)NC(=O)NC1CCCCC1)Cc1cccc(Cl)c1Cl` is higher in Z score: -1.18 for the first, -0.83 for the second.

First: CN(C(=O)c1cccc(NC(=O)[C@H]2[C@@H]3C[C@@H]4[C@H]2C(=O)O[C@@H]4C3)c1)c1ccccc1Cl
Second: CC(=O)Nc1ccc(S(=O)(=O)N2CC[C@H]2c2ccc(Cl)cc2)cc1
The Z score of the first is higher: 2.29 for the first, 1.58 for the second.

Going from `CCc1nn(-c2ccc(F)cc2)c(Oc2cccc(C)c2)c1CN(C[C@H]1CCCO1)C(=O)NC(C)(C)C` to `CN(C)CCCc1nc(C2CC2)nn1-c1ccc(C(F)(F)F)cc1`, the Z score rises from -0.14 to 0.55.

Compared with `CCN1C(=O)N[C@@H](Cc2cccc(Cl)c2)C1=O`, `Cc1cc(N2C(=O)C3CCC(c4ccccc4)CC3C2=O)cc(C)c1Br` (configuration not stated) is lower in Z score: 2 for the first, 0.27 for the second.

First: Cc1cc(-c2ccncc2)nn1CCNS(=O)(=O)CCC(F)(F)F
Second: CC[C@@H](c1ccncc1)N(C)C(=O)c1cc2n(n1)CCCC2
The Z score of the first is lower: -1.4 for the first, 1.01 for the second.

Compared with `Nc1ccc(-c2nc3c(ccc4ccccc43)o2)cc1`, `CCc1nnc2c(S(=O)(=O)N(Cc3ccccc3F)c3cc(F)cc(F)c3)cccn12` is lower in Z score: 1.56 for the first, 0.2 for the second.

First: CC(Cc1ccc2ccccc2c1)NC(=O)COCC1CCCNC1 (configuration not stated)
Second: O=C(c1ccccc1)N1CCC([C@H]2c3[nH]cnc3CCN2Cc2cccnc2)CC1
The Z score of the first is higher: 0 for the first, -0.04 for the second.

First: COc1ccc2c(c1)CCc1c(C(=O)Nc3ccc4sc(NC(C)=O)nc4c3)n[nH]c1-2
Second: COc1ccc(CCNC(=O)[C@H]2CCCN(S(=O)(=O)N3CCC(C)CC3)C2)cc1OC
The Z score of the first is lower: -1.96 for the first, 0.35 for the second.

Compared with `CCN1CCCC[C@@H]1CNc1cc(C)cc(F)c1S(N)(=O)=O`, `c1ccc(N2CCC(n3cncn3)CC2)nc1` is higher in Z score: 1.62 for the first, 2.26 for the second.

For `CC(C)CC(CC(C)C)NC(=O)CCn1cncn1`, the Z score was 0.01.
